# Experimental data: the supplement of paper PMC11417369
# ± gives the standard deviation of the averaged measurements. This is one part of the list.
# Tested on: PfAP2-G AP2 domain (GST-tagged)
# Assay: gcPBM binding intensity (ln(normalized median fluorescence intensity)); higher = stronger DNA binding
# Procedure, shortened: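 An Agilent 4 × 180k array of primer-extended double-stranded 36-bp intergenic genomic probes, with negative controls, was incubated for 1 h with GST-tagged P. falciparum DNA-binding domains expressed in E. coli. Alexa488 anti-GST antibody detected bound protein, scanned at 488 nm. Binding intensity is the highest Masliner-normalised natural-log median intensity across replicate spots of either probe orientation.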
row,Sequence,gcPBM binding intensity (ln)
1,TTCGGAAAAATTAAAGCACACAAAAAAAAATAAAAA [CACACA_site8296],10.1 ± 0.14
2,GATTAACAACATATTAGTACATATATTATATATATA [XGTACX_site7646],11 ± 0.76
3,GACTATAATGTTTTGGTGCGTCATGTTATGGTCATC,10.4 ± 0.29
4,TATAAACCTTTTTGCACGCACACAAAAAAAAAATAA [CACACA_site168],10.6 ± 0.52
5,AAACATATATACATATGTACATATATACATATATGT [XGTACX_site5779],11.4 ± 0.54
6,ATACACATTCTTCCGACATAATAAGAAAAAGAAAAA [CACACA_negctrl_site9],9.97 ± 0.33
7,AAAATGTATTCTCTCATGCACACTTTCTTTAAGGGA [CACACA_site2196],10.04 ± 0.092
8,TGTAGATTTTGTAACACACACATATAAATACCTATA [CACACA_site7183],10.2 ± 0.16
9,TTATTTATATTTTTTTGTACACATATTGTATACATA [XGTACX_site1178],11.5 ± 0.86
10,CATATTTTATTATATACATGCAATTTTAATATATAT [TGCATGCA_site544],9.96 ± 0.18
11,CACCCCCACAGACACACACACACACCGATATATATA [CACACA_site8010],11 ± 0.58
12,TATAATTTAACGACATGTACATATAAAAAAATATTT [XGTACX_site2395],11.3 ± 0.61
13,AAATATAATAACGAACGTACTTATTATAATTTGTAA [XGTACX_site2342],10.9 ± 0.45
14,ATCTCTTATATATTCACACACATATATATAATTATA [CACACA_site1502],10.08 ± 0.071
15,TACATGAATATTTATACATGCACACTAAAATAAAGA [TGCATGCA_site611],10.06 ± 0.035
16,TATTTACATACAAAATGTACAAAAATATATTTTTTT [XGTACX_site888],10.6 ± 0.35
17,ATATATATTTAATGTTGTACATAAAAAATATATAAA [XGTACX_site7774],11.3 ± 1
18,TATTTATATATATGATGTACATAAGGTGTAATGTTA [XGTACX_site5591],11.2 ± 0.62
19,AAATAATACAAGGGCTGTACATAAAAAGGAGTATAT [XGTACX_site839],11.3 ± 0.52
20,ATTTTAAAAAGGATAGTGCAAATGTTAAAATAGGAC,10.5 ± 0.26
21,ATAGGTAAAAAGTATACACACGTTGACACATTCTTT [CACACA_site4794],10.21 ± 0.064
22,AGAAAAAAAAAAAGTACACACATATAACATATAGAT [CACACA_site7410],11.6 ± 0.86
23,ATTTATTTTCTGTGTACACATATGTTGGGTATTTTA [CACACA_site5902],11.7 ± 0.96

row,Sequence,gcPBM binding intensity (ln)
1,GTATATATCCCAAAATGTACATAATTTATTATTTAT [XGTACX_site2842],11 ± 0.28
2,GGTCTTTTTTTCAAAAGTACATAAATAAAAAAGGTT [XGTACX_site2894],11.6 ± 1.1
3,TTGTATGTAAAAAAGTGTACATGAGTGATTATATAA [XGTACX_site8166],11.3 ± 0.69
4,TAAATTTAAAAATCTGCACACATTTAAAAAAAAAAA [CACACA_site2515],10 ± 0.26
5,ATTACTAAAAAATATAAACACACATATATTTTACAT [CACACA_site8633],9.84 ± 0.085
6,CAAAAGGATGTGGGATGTACATATGAAAAAAAAAAA [XGTACX_site8059],11.1 ± 0.57
7,TTTTATTTATAATACTCACACATTTATATTACATAT [CACACA_site6000],10.2 ± 0.17
8,CTTTTTTTCTTTCCAAGTACTAAATTCATACAAATT [XGTACX_site2605],10.8 ± 0.51
9,AATAAAATAATAAAAGCACACAAGAATACACCCAAA [CACACA_site7919],10.6 ± 0.45
10,TTTAACGAATAAAAATGTACAAATTTATACATTTAT [XGTACX_site2805],10.7 ± 0.43
11,GAAAATTTAAAAAGAGTGCATTATATGTTTGAATAT [GTGCAC_site9564],9.93 ± 0.11
12,ATTTCTAAATGTTGGTGTACGTTTTTTTATAACCTT [XGTACX_site1752],11.6 ± 1.1
13,AGTGTATGTATATAAACACACATACATATTTATAAC [CACACA_site6777],9.915 ± 0.021
14,AAAAAAAAGAAAGAAAGTACAAATTATAAAATGAAC [XGTACX_site860],11 ± 0.61
15,TAAATTAAAAAACACACACACAAAAAAAAAAAAAAA [CACACA_site2263],9.77 ± 0.67
16,AATAAATGGAATGTCACACATATATATATATATATA [CACACA_site4869],10.1 ± 0.35
17,ATTATTTAAAAAAAATGTACATAATAAATATGAACG [XGTACX_site4010],11.4 ± 0.77
18,TGAAGGATATATTCCGTGCACATATAAATATATACA,10.2 ± 0.3
19,AACATGTTAACTAAATGTACACACCTATGTTGATGT [XGTACX_site3777],11.1 ± 0.68
20,CAGGTGCACTATATTACACACGCTTCTTTTTTTTTA [CACACA_site2069],10.6 ± 0.6
21,TTGATATTATTGTATAAACATAATAGAGATAAAGAG [TGCATGCA_negctrl_site455],10.3 ± 0.3
22,TATATACATATATACACACACATATATATATATATA [CACACA_site2805],10 ± 0.29
